Laboratory results published in PMC4336329 (PLoS ONE, 2015).
The campaign covered roughly 310,000 compounds. About 2,200 (0.71%) showed an effect of 50% or more. Effects have a minus sign here. The list shows a part of the results.

The compounds below were run against human ether-à-go-go-related gene (hERG) potassium channel (human, UniProt Q12809) (assay: primary screen, population patch clamp on CHO cells stably expressing hERG).
Chain of human ether-à-go-go-related gene (hERG) potassium channel (Q12809 whole entry, looked up): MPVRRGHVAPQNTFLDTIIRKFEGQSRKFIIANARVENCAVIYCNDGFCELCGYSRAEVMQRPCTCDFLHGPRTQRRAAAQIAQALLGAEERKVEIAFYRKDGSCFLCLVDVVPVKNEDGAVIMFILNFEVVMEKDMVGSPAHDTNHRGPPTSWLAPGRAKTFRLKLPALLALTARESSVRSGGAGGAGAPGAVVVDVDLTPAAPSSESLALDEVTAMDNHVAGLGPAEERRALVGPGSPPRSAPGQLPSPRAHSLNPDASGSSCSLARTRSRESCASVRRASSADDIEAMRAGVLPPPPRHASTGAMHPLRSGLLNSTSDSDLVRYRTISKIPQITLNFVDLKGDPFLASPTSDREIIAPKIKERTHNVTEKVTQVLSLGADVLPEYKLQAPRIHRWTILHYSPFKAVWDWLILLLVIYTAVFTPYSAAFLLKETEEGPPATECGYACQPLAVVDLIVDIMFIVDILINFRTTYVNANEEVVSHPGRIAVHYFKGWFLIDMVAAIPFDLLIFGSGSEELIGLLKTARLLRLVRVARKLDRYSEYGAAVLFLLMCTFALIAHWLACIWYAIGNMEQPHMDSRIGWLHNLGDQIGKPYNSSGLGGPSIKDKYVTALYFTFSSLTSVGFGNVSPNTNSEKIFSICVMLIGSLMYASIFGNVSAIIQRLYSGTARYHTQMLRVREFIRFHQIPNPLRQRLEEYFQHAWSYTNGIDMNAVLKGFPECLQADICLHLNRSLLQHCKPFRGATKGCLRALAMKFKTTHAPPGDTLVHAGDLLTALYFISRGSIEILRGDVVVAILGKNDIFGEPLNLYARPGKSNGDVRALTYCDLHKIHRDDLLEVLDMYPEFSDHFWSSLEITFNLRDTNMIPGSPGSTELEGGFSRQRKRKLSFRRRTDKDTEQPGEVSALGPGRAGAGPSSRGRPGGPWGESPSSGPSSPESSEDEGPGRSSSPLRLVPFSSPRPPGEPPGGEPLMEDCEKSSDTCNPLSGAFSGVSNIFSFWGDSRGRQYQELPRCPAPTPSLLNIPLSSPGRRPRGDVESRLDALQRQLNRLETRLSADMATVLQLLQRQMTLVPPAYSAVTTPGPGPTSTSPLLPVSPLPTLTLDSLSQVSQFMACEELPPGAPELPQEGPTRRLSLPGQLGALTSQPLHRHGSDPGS

SMILES	hERG current change (%, negative = inhibition) at 1uM
COc1ccccc1-c1cc(C(=O)NCc2cccs2)no1	9.7%
CCN1CCN(c2ccc(NC(=O)c3cccc4ncccc34)cc2)CC1	10.3%
CCOc1cc(C(=O)NCCCNC(=O)c2cc(OCC)c(OCC)c(OCC)c2)cc(OCC)c1OCC	22.3%
COc1ccccc1C(=O)Nc1nnc(C)s1	2.97%
COCCCN1CN=C(Nc2nc3ccccc3o2)NC1	5.68%
Cc1ccc2[nH]c3c(c2c1)CN(C(=O)CN(C)CC1OCCO1)CC3	15.1%
Cc1cccc(NS(=O)(=O)c2c(C)noc2C)c1	11.1%
CN(CC(=O)Nc1cccc(F)c1)C(=O)c1cn(-c2ccccc2)nc1-c1cccs1	14.1%
COc1ccc(OC)c(S(=O)(=O)N2Cc3ccccc3CC2C(=O)Nc2nccs2)c1 (stereo not shown)	15.5%
COc1ccccc1N1CCN(C(=O)CCNS(=O)(=O)c2ccc(Br)s2)CC1	-2.71%
O=C(Nc1cccn(Cc2c(Cl)cccc2Cl)c1=O)c1ccc(Cl)cc1	6.52%
C[C@H]1Oc2ccccc2C(=O)C1C(=O)c1ccccc1 (stereo partly shown)	1.98%
C/C(=N\Nc1ccc([N+](=O)[O-])cc1[N+](=O)[O-])c1cccnc1	0.177%
COc1cc2c(cc1OC)CN(Cc1nc3ccsc3c(=O)[nH]1)CC2	9.04%
CCCOc1ccccc1C1C(C(=O)OC)=CN(C(C)C)C=C1C(=O)OC	-18.9%
CCOC(=O)C1=C(N)Oc2ccc3ccccc3c2C1c1cccnc1 (stereo not shown)	4.13%
CN(C)CCOCCOc1ccc(Cl)c2ccccc12.O=C(O)C(=O)O	0.948%
COP(=O)(OC)c1nc(-c2ccc(C)cc2)oc1N1CCCCC1	4.18%
O=C(CN1CCN(C(=O)c2ccco2)CC1)Nc1ccc(Br)cc1	10.5%
CC1Cc2ccccc2N1C(=O)CSc1nnc(-c2ccccc2)c(-c2ccccc2)n1 (stereo not shown)	3.77%
CCOC(=O)c1cnn(-c2cc(C)nc3c(-c4ccccc4)c(C)nn23)c1N	9.87%
CCCN1Cc2cccc(C(=O)NC(CC(=O)OCC)c3ccc(OC(C)C)cc3)c2C1=O (stereo not shown)	-6.43%

SMILES	hERG current change (%, negative = inhibition) at 1uM
COc1ccc(OCC(=O)NNC(=O)C(=O)Nc2cc(OC)ccc2OC)cc1	13.5%
O=C(CSC1CC(=O)N(CCc2ccccc2)C1=O)Nc1cccc(Cl)c1 (stereo not shown)	8.29%
Cn1c(=O)c2c(nc(Br)n2C/C=N/NC(N)=S)n(C)c1=O	9.12%
Cc1ccc2sc3ccc(NC(=O)c4ccccc4Cl)cc3c(=O)c2c1	12.1%
COc1ccc(CCNC(=O)CCC(=O)N2CCN(S(=O)(=O)c3ccccc3)CC2)cc1OC	13.2%
CC1CCN(C(NC(=O)c2ccco2)C(=O)c2ccccc2)CC1 (stereo not shown)	-0.99%
CC(C)CN(C(=O)c1ccc(N2CCCC2=O)cc1)C1CCS(=O)(=O)C1 (stereo not shown)	11.4%
CCCCNc1c(-c2ccc(OC)c(SC3CCCCC3)c2)nc2cnccn12.O=C(O)C(F)(F)F	9.85%
Cc1cc(N2CCCCC2)nc(SCC(=O)c2ccccc2)n1	12.5%
NC(=O)c1ccccc1NC(=O)CN1CCOCC1	11.1%
O=C(COc1ccc2oc(-c3ccccc3)cc(=O)c2c1)NCc1ccco1	17.8%
O=C1CC2(CCCC2)C(=O)N1c1ccc(S(=O)(=O)NCC2CC2)cc1Cl	8.36%
Cc1cccc(N(C(=O)Cn2nnc3ccccc32)C(C(=O)NCc2ccco2)c2ccncc2)c1C (stereo not shown)	3.44%
O=C(Nc1ccc(Cl)c(S(=O)(=O)N2CCOCC2)c1)c1cc(-c2ccccn2)nc2ccccc12	2.12%
O=C(CCS(=O)(=O)c1cccc2nonc12)N1CCOCC1	14.9%
Cc1cccc(C)c1NC(=O)CN(C)C(=O)c1ccc(COc2ccccc2)cc1	1.39%
Nc1nc(COc2ccc3ccccc3c2)cs1	-3.78%
Cc1noc(NS(=O)(=O)c2ccc(N/C=C/C(=O)c3cccnc3)cc2)c1C	8.79%
CCOC(=O)c1c(C(C)(C)C)oc2ccc(O)cc12	8.44%
COC(=O)c1cc(C(=O)OC)n(Cc2ccc(Br)cc2)n1	-5.63%
Cl.FC(F)(F)c1ccc(CN2CCNCC2)cc1	4.21%
CCOCCCN1C(=O)CN(C2CCCCCC2)C(=O)C1c1ccc(OC)cc1 (stereo not shown)	10.2%

SMILES	hERG current change (%, negative = inhibition) at 1uM
COc1ccc(OCc2cccc(C(=O)Nc3ccc(CN4CCCCC4)cc3)c2)cc1	-2.8%
Cn1c2ccccc2c2cnn(CC(=O)N3CCC4(CC3)OCCO4)c(=O)c21	-1.85%
CCCN(CCO)Cc1ccc(Cl)c(Cl)c1	-2.47%
COc1ccc(S(=O)(=O)N2CCCC(C(=O)N3CCOCC3)C2)cc1Cl (stereo not shown)	4.43%
Cc1cc(C)c(S(=O)(=O)NC2CC3CCC2C3)c(C)c1 (stereo not shown)	11.3%
Cc1cc(NC(=O)CSc2nc3cc(C)c(C)cc3cc2C)no1	17.1%
O=c1[nH]c2c(c3c1CCCC3)CCCC2	12.8%
Cc1cc(C)cc(NC(=O)NN2C(C)CCCC2C)c1 (stereo not shown)	8.12%
CC(=O)N1CCC2(CC1)C/C(=N\NC(=S)Nc1ccccc1C)c1cc(O)ccc1O2	-4.91%
Brc1ccc(-c2nn3c(-c4ccccn4)nnc3s2)o1	-10.4%
Cc1cccc(OCCCC(=O)NC(C)C)c1	3.35%
C[C@H](Cc1ccccc1)Nc1ncnc2c1ncn2[C@@H]1O[C@H](CO)[C@@H](O)[C@H]1O	11.7%
CN1C(=O)C(=Cc2coc3ccccc3c2=O)C(=O)N(C)C1=O	11.7%
Cc1csc(N/N=C/c2ccc(O)c([N+](=O)[O-])c2)n1	4.45%
CCOC(=O)C1CCCN(C(=O)c2cccc(S(=O)(=O)N(C)c3c(C)n(C)n(-c4ccccc4)c3=O)c2)C1 (stereo not shown)	-5.33%
O=C(CNC(=O)c1ccc(Br)cc1)NCc1cccnc1	15.9%
N#CC1=C(N)Oc2cc(N)ccc2C1c1cccnc1 (stereo not shown)	4.06%
O=C(NNC(=O)C1CCN(Cc2ccc(F)cc2Cl)CC1)Nc1ccc([N+](=O)[O-])cc1	-8.18%
COc1ccc2c(c1OC)C(=O)N1N=C(c3ccc(-c4ccccc4)cc3)CC21 (stereo not shown)	15.4%
Cl.NCCc1nnc(SCc2ccccc2Cl)o1	24.8%
CCO[C@H]1OC(C(=O)N2CCN(Cc3ccc4c(c3)OCO4)CC2)=C[C@@H](c2ccccc2)[C@@H]1CCCO	4.36%
COc1cccc(-n2nc(C(=O)N3CCN(Cc4ccccc4)CC3)c3ccccc3c2=O)c1	-4.12%

SMILES	hERG current change (%, negative = inhibition) at 1uM
COc1ccc(CCNC(=O)C2CCN(C(=O)c3ccccc3C)CC2)cc1	15.5%
O=C(c1ccco1)N1CCN(C(=O)c2cnn(-c3cccc(F)c3)c2C2CCNCC2)CC1	15.1%
COc1ccccc1/C=C/c1ccc2cccc(O)c2n1	12.1%
Cc1c(C(=O)NC2=NCCS2)oc2ccccc12	-16.6%
COc1ccccc1S(=O)(=O)Cc1ccc(C(=O)NCc2ccccc2)o1	15.9%
O=C(NCCCN1CCOCC1)c1cc(-c2ccc(Br)cc2)on1	-31.2%
Cc1cc(OCc2nn[nH]n2)c2c(-c3ccccc3)cc(=O)oc2c1	2.42%
CN(C)CCN(Cc1ccco1)S(=O)(=O)c1ccc(-c2ccc(=O)[nH]n2)s1	-22.4%
CC1(C)C(=O)Nc2ccccc2N1C(=O)CSc1nc(-c2ccccc2)cs1	11.1%
CCC(C)c1ccccc1N1CC(C(=O)N2CCN(C(=O)c3ccco3)CC2)CC1=O (stereo not shown)	9.39%
Cc1ccc(CN2C3=NC(=O)CN3c3ccccc32)cc1	6.57%
Cc1ccc(-c2nc(CN(Cc3cnn(C)c3)C(C)C)c(C)o2)o1	5.42%
Cn1c(SCC(=O)NC(=O)NCc2ccco2)nnc1-c1ccccc1	3.72%
C/C(=N\NC(=S)NCc1ccccc1)c1ccccc1F	14%
CN(C(=O)C1CCOC1)c1nnc(-c2ccncc2)s1 (stereo not shown)	6.92%
COc1cc(NC(=O)c2cccc(COCC(F)(F)C(F)F)c2)cc(OC)c1OC	2.92%
Cc1ccc(/C=N/NC(=O)C(=O)N/N=C/c2ccc(C)o2)o1	7.17%
CCc1ccc(N2C(=O)/C(=C/c3cccs3)N(CC(=O)OC)C2=S)cc1	10.1%
Cc1[nH]c2ccccc2c1C(=O)CN1CC(C)OC(C)C1 (stereo not shown)	8.25%
C/C(=N/OC(=O)c1ccc(F)cc1)c1ccc(C)cc1	13.9%
Brc1ccc(N=Cc2ccccn2)cc1	16.9%
CCOC(=O)C(Cc1c(F)cccc1Cl)c1ccnc2nc(N)nn12 (stereo not shown)	11%
